# In the supplement of paper PMC8728848:
# The other results are listed elsewhere or left out.
# How the values were obtained:
# Assay in all cases: glycan array binding signal (z-score within array); higher = stronger binding
# Settings in all cases: glycan notation: IUPAC condensed, linker removed
# [1] = molecular target: Fuc(a1-2)Gal(b1-4)[Fuc(a1-3)]GlcNAc(b1-2)Man(a1-3)[Fuc(a1-2)Gal(b1-4)[Fuc(a1-3)]GlcNAc(b1-2)Man(a1-6)]Man(b1-4)GlcNAc(b1-4)[Fuc(a1-6)]GlcNAc
# Procedure, shortened: (§1)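 The binding signal is a Z-score computed within each array. Data were drawn from 3228 arrays in the Consortium for Functional Glycomics database, restricted to those with a known protein sequence. Scores were averaged over arrays of the same protein sequence at different concentrations or buffers, and over linkers, and negative values can be taken as non-binding.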
# [2] = molecular target: Fuc(a1-2)Gal(b1-4)[Fuc(a1-3)]GlcNAc(b1-2)[Fuc(a1-2)Gal(b1-4)[Fuc(a1-3)]GlcNAc(b1-4)]Man(a1-3)[Fuc(a1-2)Gal(b1-4)[Fuc(a1-3)]GlcNAc(b1-2)Man(a1-6)]Man(b1-4)GlcNAc(b1-4)GlcNAc
# Procedure, shortened: as §1
# [3] = molecular target: Fuc(a1-2)Gal(b1-4)[Fuc(a1-3)]GlcNAc(b1-3)Gal(b1-4)[Fuc(a1-3)]GlcNAc
# Procedure, shortened: as §1
# [4] = molecular target: Fuc(a1-2)Gal(b1-4)[Fuc(a1-3)]GlcNAc(b1-3)Gal(b1-4)[Fuc(a1-3)]GlcNAc(b1-3)Gal(b1-4)[Fuc(a1-3)]GlcNAc
# Procedure, shortened: as §1
# [5] = molecular target: Fuc(a1-2)Gal(b1-4)[Fuc(a1-3)]GlcNAc(b1-3)GalNAc
# Procedure, shortened: as §1
# [6] = molecular target: Fuc(a1-2)Gal(b1-4)[Fuc(a1-3)]GlcNAc(b1-3)[Neu5Ac(a2-6)Gal(b1-4)GlcNAc(b1-6)]Gal(b1-4)Glc
# Procedure, shortened: as §1
# [7] = molecular target: Fuc(a1-2)Gal3S(b1-4)GlcNAc
# Procedure, shortened: as §1
# [8] = molecular target: Fuc(a1-2)Gal6S(b1-3)GlcNAc
# Procedure, shortened: as §1
# [9] = molecular target: Fuc(a1-2)Gal6S(b1-3)GlcNAc6S
# Procedure, shortened: as §1
# [10] = molecular target: Fuc(a1-2)Gal6S(b1-4)Glc
# Procedure, shortened: as §1
# [11] = molecular target: Fuc(a1-2)Gal6S(b1-4)Glc6S
# Procedure, shortened: as §1
# [12] = molecular target: Fuc(a1-2)[Gal(a1-3)]Gal
# Procedure, shortened: as §1
# [13] = molecular target: Fuc(a1-2)[Gal(a1-3)]Gal(b1-3)GalNAc
# Procedure, shortened: as §1
# [14] = molecular target: Fuc(a1-2)[Gal(a1-3)]Gal(b1-3)GalNAc(b1-3)Gal(a1-4)Gal(b1-4)Glc
# Procedure, shortened: as §1
# [15] = molecular target: Fuc(a1-2)[Gal(a1-3)]Gal(b1-3)GlcNAc
# Procedure, shortened: as §1
# [16] = molecular target: Fuc(a1-2)[Gal(a1-3)]Gal(b1-3)GlcNAc(b1-2)Man(a1-3)[Fuc(a1-2)[Gal(a1-3)]Gal(b1-3)GlcNAc(b1-2)Man(a1-6)]Man(b1-4)GlcNAc(b1-4)GlcNAc
# Procedure, shortened: as §1
# [17] = molecular target: Fuc(a1-2)[Gal(a1-3)]Gal(b1-3)GlcNAc(b1-2)Man(a1-3)[Fuc(a1-2)[Gal(a1-3)]Gal(b1-3)GlcNAc(b1-2)Man(a1-6)]Man(b1-4)GlcNAc(b1-4)[Fuc(a1-6)]GlcNAc
# Procedure, shortened: as §1
# [18] = molecular target: Fuc(a1-2)[Gal(a1-3)]Gal(b1-3)GlcNAc(b1-3)GalNAc
# Procedure, shortened: as §1
# [19] = molecular target: Fuc(a1-2)[Gal(a1-3)]Gal(b1-3)GlcNAc(b1-6)GalNAc
# Procedure, shortened: as §1
# [20] = molecular target: Fuc(a1-2)[Gal(a1-3)]Gal(b1-4)Glc
# Procedure, shortened: as §1
# [21] = molecular target: Fuc(a1-2)[Gal(a1-3)]Gal(b1-4)GlcNAc
# Procedure, shortened: as §1
# [22] = molecular target: Fuc(a1-2)[Gal(a1-3)]Gal(b1-4)GlcNAc(b1-2)Man
# Procedure, shortened: as §1
# [23] = molecular target: Fuc(a1-2)[Gal(a1-3)]Gal(b1-4)GlcNAc(b1-2)Man(a1-3)[Fuc(a1-2)[Gal(a1-3)]Gal(b1-4)GlcNAc(b1-2)Man(a1-6)]Man(b1-4)GlcNAc(b1-4)GlcNAc
# Procedure, shortened: as §1
# [24] = molecular target: Fuc(a1-2)[Gal(a1-3)]Gal(b1-4)GlcNAc(b1-2)Man(a1-3)[Fuc(a1-2)[Gal(a1-3)]Gal(b1-4)GlcNAc(b1-2)Man(a1-6)]Man(b1-4)GlcNAc(b1-4)[Fuc(a1-6)]GlcNAc
# Procedure, shortened: as §1
# [25] = molecular target: Fuc(a1-2)[Gal(a1-3)]Gal(b1-4)GlcNAc(b1-3)GalNAc
# Procedure, shortened: as §1
# [26] = molecular target: Fuc(a1-2)[Gal(a1-3)]Gal(b1-4)GlcNAc(b1-3)[Fuc(a1-2)[Gal(a1-3)]Gal(b1-4)GlcNAc(b1-6)]GalNAc
# Procedure, shortened: as §1
# [27] = molecular target: Fuc(a1-2)[Gal(a1-3)]Gal(b1-4)GlcNAc(b1-6)GalNAc
# Procedure, shortened: as §1
# [28] = molecular target: Fuc(a1-2)[Gal(a1-3)]Gal(b1-4)[Fuc(a1-3)]Glc
# Procedure, shortened: as §1
# [29] = molecular target: Fuc(a1-2)[Gal(a1-3)]Gal(b1-4)[Fuc(a1-3)]GlcNAc
# Procedure, shortened: as §1
# [30] = molecular target: Fuc(a1-2)[Gal(a1-3)]Gal(b1-4)[Fuc(a1-3)]GlcNAc(b1-3)GalNAc
# Procedure, shortened: as §1
# [31] = molecular target: Fuc(a1-2)[Gal(a1-4)]Gal(b1-4)GlcNAc
# Procedure, shortened: as §1
# [32] = molecular target: Fuc(a1-2)[GalNAc(a1-3)]Gal
# Procedure, shortened: as §1
# [33] = molecular target: Fuc(a1-2)[GalNAc(a1-3)]Gal(b1-3)GalNAc(a1-3)[Fuc(a1-2)]Gal(b1-4)GlcNAc
# Procedure, shortened: as §1
# [34] = molecular target: Fuc(a1-2)[GalNAc(a1-3)]Gal(b1-3)GalNAc(b1-3)Gal(a1-4)Gal(b1-4)Glc
# Procedure, shortened: as §1
# [35] = molecular target: Fuc(a1-2)[GalNAc(a1-3)]Gal(b1-3)GlcNAc
# Procedure, shortened: as §1
# [36] = molecular target: Fuc(a1-2)[GalNAc(a1-3)]Gal(b1-3)GlcNAc(b1-2)Man(a1-3)[Fuc(a1-2)[GalNAc(a1-3)]Gal(b1-3)GlcNAc(b1-2)Man(a1-6)]Man(b1-4)GlcNAc(b1-4)GlcNAc
# Procedure, shortened: as §1
# [37] = molecular target: Fuc(a1-2)[GalNAc(a1-3)]Gal(b1-3)GlcNAc(b1-2)Man(a1-3)[Fuc(a1-2)[GalNAc(a1-3)]Gal(b1-3)GlcNAc(b1-2)Man(a1-6)]Man(b1-4)GlcNAc(b1-4)[Fuc(a1-6)]GlcNAc
# Procedure, shortened: as §1
# [38] = molecular target: Fuc(a1-2)[GalNAc(a1-3)]Gal(b1-3)GlcNAc(b1-3)GalNAc
# Procedure, shortened: as §1
binder,measurement,setting,value
OGAA (protein) MVQKESQATLEERESELSSNPAASAGASLEPPAAPAPGEDNPAGAGGAAVAGAAGGARRFLCGVVEGFYGRPWVMEQRKELFRRLQKWELNTYLYAPKDDYKHRMFWREMYSVEEAEQLMTLISAAREYEIEFIYAISPGLDITFSNPKEVSTLKRKLDQVSQFGCRSFALLFADIDHNMCAADKEVFSSFAHAQVSITNEIYQYLGEPETFLFCPTEYCGTFCYPNVSQSPYLRTVGEKLLPGIEVLWTGPKVVSKEIPVESIEEVSKIIKRAPVIWDNIHANDYDQKRLFLGPYKGRSTELIPRLKGVLTNPNCEFEANYVAIHTLATWYKSNMNGVRKDVVMTDSEDSTVSIQIKLENEGSDEDIETDVLYSPQMALKLALTEWLQEFGVPHQY,glycan array binding signal (z-score),[1],0.139
same,glycan array binding signal (z-score),[2],-0.076
same,glycan array binding signal (z-score),[3],-0.076
same,glycan array binding signal (z-score),[4],-0.068
same,glycan array binding signal (z-score),[5],-0.08
same,glycan array binding signal (z-score),[6],-0.036
same,glycan array binding signal (z-score),[7],-0.06
same,glycan array binding signal (z-score),[8],-0.055
same,glycan array binding signal (z-score),[9],1.74
same,glycan array binding signal (z-score),[10],-0.073
same,glycan array binding signal (z-score),[11],0.205
same,glycan array binding signal (z-score),[12],-0.049
same,glycan array binding signal (z-score),[13],-0.034
same,glycan array binding signal (z-score),[14],-0.067
same,glycan array binding signal (z-score),[15],0.126
same,glycan array binding signal (z-score),[16],-0.069
same,glycan array binding signal (z-score),[17],0
same,glycan array binding signal (z-score),[18],-0.109
same,glycan array binding signal (z-score),[19],-0.109
same,glycan array binding signal (z-score),[20],-0.064
same,glycan array binding signal (z-score),[21],-0.078
same,glycan array binding signal (z-score),[22],-0.084
same,glycan array binding signal (z-score),[23],-0.092
same,glycan array binding signal (z-score),[24],-0.058
same,glycan array binding signal (z-score),[25],-0.076
same,glycan array binding signal (z-score),[26],-0.026
same,glycan array binding signal (z-score),[27],-0.079
same,glycan array binding signal (z-score),[28],-0.104
same,glycan array binding signal (z-score),[29],0.083
same,glycan array binding signal (z-score),[30],0.001
same,glycan array binding signal (z-score),[31],-0.047
same,glycan array binding signal (z-score),[32],-0.073
same,glycan array binding signal (z-score),[33],22.9
same,glycan array binding signal (z-score),[34],8.04
same,glycan array binding signal (z-score),[35],-0.045
same,glycan array binding signal (z-score),[36],-0.129
same,glycan array binding signal (z-score),[37],-0.053
same,glycan array binding signal (z-score),[38],-0.061
